In all, about 45,000 compounds went through this assay and about 65 (0.1%) were called active. The call rests on the fitted dose curve; in most records, active means well fitted activation curve with a large enough effect; inconclusive means small, poorly fitted or top-dose-only effect; inactive means no such curve, though single readings can be large or run the other way. The list shows a part of the results.
Target: Galactocerebrosidase (Homo sapiens) (UniProt P54803)
Test: A Novel Cell-Based Assay to Identify Small Molecules for B -Galactocerebrosidase; further: 0% is about no effect; nearly all actives have a fitted effect of over 65% in size
Conditions: 145M-Twi-hGALC-G270D cells (Twitcher mouse brain line with human GALC G270D), HMU-beta-Gal fluorescence, 48 h; series mostly up to 57.5 µM; activation: at the top concentration
How it was run: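 Brain-derived Twitcher mouse 145M-Twi cells stably expressing human GALC-G270D or wild-type GALC, treated live, then residual GALC activity read by fluorescence of HMU-b-Gal substrate (0.1 mM final) in citrate-phosphate buffer pH 5.2 with sodium taurocholate. Signal increase indicates enhancement.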

Sequence of UniProt P54803 (P54803 whole entry, looked up): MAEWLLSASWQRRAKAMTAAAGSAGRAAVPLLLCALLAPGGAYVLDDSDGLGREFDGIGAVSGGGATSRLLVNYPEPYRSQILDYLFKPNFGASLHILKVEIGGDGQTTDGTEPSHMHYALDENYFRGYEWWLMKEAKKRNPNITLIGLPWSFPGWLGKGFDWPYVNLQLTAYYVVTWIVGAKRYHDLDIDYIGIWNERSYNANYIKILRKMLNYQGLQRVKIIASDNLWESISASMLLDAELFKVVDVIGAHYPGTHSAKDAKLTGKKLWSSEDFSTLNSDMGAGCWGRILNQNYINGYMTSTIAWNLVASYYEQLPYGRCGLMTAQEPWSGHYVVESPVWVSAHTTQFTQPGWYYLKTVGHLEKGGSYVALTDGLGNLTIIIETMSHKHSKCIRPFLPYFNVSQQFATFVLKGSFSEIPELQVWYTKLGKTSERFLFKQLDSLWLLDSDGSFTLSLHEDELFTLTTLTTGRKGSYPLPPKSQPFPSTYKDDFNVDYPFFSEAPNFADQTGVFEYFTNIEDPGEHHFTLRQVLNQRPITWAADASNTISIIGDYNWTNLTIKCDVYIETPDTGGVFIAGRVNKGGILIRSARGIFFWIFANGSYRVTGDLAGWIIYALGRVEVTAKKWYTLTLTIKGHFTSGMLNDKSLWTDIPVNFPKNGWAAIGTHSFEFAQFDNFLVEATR

activation, inactive:
CCN(CC)c1nc(-c2ccccc2Cl)c2cc(Br)ccc2n1 -17%, O=C(C1CC1)N1CCN(c2nc3c(F)cc(F)cc3s2)CC1 -15.6%, Cc1nn(-c2ccccc2)c2nc(C3CC3)cc(C(=O)NCc3ccccc3Cl)c12 -9.01%, Cc1cccc(CNC(=O)c2sc3ncnc(N(C)C4CCCCC4)c3c2C)c1 -5.36%, CCc1ccc(NC(=O)c2sc3nc(C)c(Cl)c(C)c3c2NC(=O)c2ccccc2)cc1 -3.57%, COc1ccc(C)cc1NC(=O)CCNS(=O)(=O)c1cccc2nonc12 -24.5%, Cc1cc(Cl)ccc1OCC(=O)N(Cc1ccc(N(C)C)cc1)CC1CCCO1 (stereo unspecified) 0.539%, CC(C)Nc1ccc(-c2nc(-c3ccccn3)no2)cc1[N+](=O)[O-] -2.94%, CCCn1c2ccccc2c2cnn(CC(=O)Nc3ccc(C)cc3Br)c(=O)c21 -9.98%, Cc1cc2ccccc2n2c(SCC(=O)Nc3cccc(C(F)(F)F)c3)nnc12 3.33%, CC(=O)c1cccc(NC(=O)c2c(C)nn(-c3ccc(F)cc3)c2-n2cccc2)c1 1.47%, O=C(CSc1ncc2c(n1)-c1cc(Cl)ccc1N(Cc1ccccc1F)S2(=O)=O)Nc1cccc(C(F)(F)F)c1 -7.75%, CCCCCN1C(C(=O)c2ccccc2)=C(NC(C)=O)c2ccccc2S1(=O)=O -10.9%, COC(=O)c1cc(NC(=O)c2ccc3c(c2)N(Cc2cccc(Cl)c2)C(=O)c2ccccc2S3=O)cc(C(=O)OC)c1 (stereo unspecified) -11.3%, CCOC(=O)c1ccc(NC(=O)CSc2nccn2Cc2ccc(OC)cc2)cc1 -15.6%, Cc1cc(C)cc(C(=O)Nc2nnc3n2CCS3)c1 -11.8%, COc1ccc(OCc2nc3c4c(-c5ccc(OC)cc5)c(-c5ccc(OC)cc5)oc4ncn3n2)cc1 -17%, CCOc1ccccc1NC(=O)c1cnc(N2CCOCC2)c2ccccc12 -13%, CNc1oc(-c2ccc(COc3ccc(C)cc3)o2)nc1C#N -5.27%, CCOc1ccccc1C(=O)Nc1cc(-c2ccc(C)cc2)no1 -5.49%, Cc1cccc(S(=O)Cc2ccc(C(=O)NC3CCCCCC3)o2)c1 (stereo unspecified) -9.25%, O=S(=O)(c1ccc(-c2cnc(C3CC3)o2)cc1)N1CCN(c2cccc(Cl)c2)CC1 0.804%, Cc1c(-c2ccccc2)n(-c2ccccc2O)c2nc3c(c(=O)n(C)c(=O)n3C)n12 -2.11%, Cc1ccc(C(=O)Nc2ccc(C(=O)OCc3cc(=O)n4c5c(sc4n3)CCCC5)cc2)cc1 -16.5%, COc1ccccc1Nc1ncc(C(=O)Nc2ccc(OC)c(OC)c2)c2ccccc12 -10.7%, O=C(c1ccc2c(c1)N(Cc1ccccc1)C(=O)c1ccccc1S2=O)N1CCC(Cc2ccccc2)CC1 (stereo unspecified) -8.66%, Cc1ccc2c(c1)c(=O)c(S(=O)(=O)c1ccc(C)c(C)c1)cn2CC(=O)Nc1ccccc1 -2.17%, CC[N+](CC)(CCNC(=O)C(=O)NCC[N+](CC)(CC)Cc1ccccc1Cl)Cc1ccccc1Cl -13.4%, CCCOc1ccc(C2=NC(c3ccc(F)cc3)=Nc3ccc(OC)cc3N2)cc1 -33.6%, CCc1cccc(C)c1NC(=O)C1=C(C)C(=O)OC12CCC(C)CC2 (stereo unspecified) -11.5%, COc1ccc2nc(N(Cc3cccnc3)C(=O)COc3ccccc3)sc2c1 -18.4%, COc1ccccc1CNC(=O)c1ccc2c(c1)CCN2S(=O)(=O)c1ccc(Cl)cc1 -8.11%, COC(=O)c1cc(S(=O)(=O)N2CCN(c3ccc(F)cc3)CC2)cn1C -14.7%, COC(=O)c1ccc(Cn2nnc3c(=O)[nH]c(C4CCCN(S(=O)(=O)c5ccccc5)C4)nc32)cc1 (stereo unspecified) 2.56%, Cn1cc(C(=O)NCCc2ccc(Cl)cc2)c(=O)c2cc(S(=O)(=O)N3CCCCC3)ccc21 -5.19%, COc1ccc(N2CCN(C(=O)Cn3nc(Cc4cccnc4)c4ccccc4c3=O)CC2)cc1 -16.8%, COc1ccccc1CNC(=O)c1cnc2sc(N3CCOCC3)nn2c1=O -4.01%, Cc1ccc(Nc2ncnc3c2nc2n3CCCC2)c(Br)c1 -22.5%, COc1ccc(NC(=O)NCC2CCN(Cc3ccccc3F)CC2)c(OC)c1 -28.9%, Cc1ccc(F)cc1NC(=O)CCSc1nc(-c2ccco2)cc(C(F)(F)F)n1 2.71%, CC1CCCN(S(=O)(=O)c2cc(C(=O)NCc3ccccc3Cl)n(C)c2)C1 (stereo unspecified) -1.26%, C=Cc1ccc(Cn2c(C(=O)O)c(CNCc3ccccc3)c3ccc(OC)cc32)cc1 -22.1%, Cc1ccc(NC(=O)C(=O)NCC(c2cccnc2)N2CCc3ccccc3C2)cc1 (stereo unspecified) -7.53%, CCOc1cc2[nH]c(=O)n(CCCC(=O)NCc3ccc(OC)cc3)c(=O)c2cc1OCC -13.1%, COc1ccc(-c2cn3c(n2)sc2cc(C(=O)Nc4ccc(F)cc4Cl)ccc23)cc1 -0.801%, COc1ccc(-n2ccn(CC(=O)Nc3ccc(C)c(C)c3)c(=O)c2=O)cc1OC -14.7%, CC(C)CCNC(=O)c1nn(C)c2c1CSc1ccccc1-2 -2.98%, COC(=O)c1c(-c2cccs2)csc1NC(=O)c1cc(OC)c(OC)c(OC)c1 -25.5%, COc1cccc(C2c3c(-c4ccccc4O)n[nH]c3C(=O)N2Cc2cccnc2)c1 (stereo unspecified) -1.25%, O=C(NC1CCCCCC1)c1ccc(CS(=O)c2ccc(Br)cc2)o1 (stereo unspecified) -14%, CCN(C(=O)c1cc2cc(Br)cc(OC)c2oc1=O)c1ccccc1 -11.6%, CC1=CC(=O)c2ccccc2C1=O -10.7%, COc1cc(Br)ccc1C1C(C(=O)Nc2ccc(C)cc2C)=C(C)Nc2nnnn21 (stereo unspecified) -20.4%, COc1ccc(CCNc2nc3ccccc3c3nc(-c4cccc(C)c4)nn23)cc1OC -10.6%, COc1ccc(S(=O)(=O)NCCc2sc(-c3cccc(C)c3)nc2C)cc1 -41.9%, Cc1ccc(CCNC(=O)c2cccc(Nc3nc4ccccc4nc3-n3nc(C)cc3C)c2)cc1 -7.88%, CCc1ccccc1NC(=O)Cn1c(=O)n(-c2ccc(C)c(C)c2)c(=O)c2oc3ccccc3c21 -25.4%, Cc1ccc(NC(=O)CSCc2cnn(-c3ccccc3)c2-n2cccc2)c(Cl)c1 -2.81%, COc1cc(OC)c(NC(=O)NCc2cccn2Cc2ccccc2)cc1Cl -15.7%, CC(C)CCNC(=O)c1ccc(Cn2c(SCC(N)=O)nc3ccccc3c2=O)cc1 -22.6%, CCOc1cc(C(=O)OCc2cc(=O)n3nc(C4CC4)sc3n2)cc(OCC)c1OCC -11.5%, CCc1ccc(-n2nc(C)c3c(C(=O)N4CCN(c5cccc(Cl)c5)CC4)cc(C)nc32)cc1 -12.6%, CCOC(=O)c1ccc(NC(=O)CCc2c(C)nc3c(c(C)nn3C(C)(C)C)c2C)cc1 -11.5%, Cc1nn(CC(=O)N2CCN(c3cccc(Cl)c3)CC2)c(=O)c2c1sc1ccccc12 -14.7%, COC(=O)c1ccc(CSc2nc3c([nH]c4ccccc43)c(=O)n2-c2cc(C)cc(C)c2)o1 -8.17%, CCS(=O)(=O)c1cccc(C(=O)N2CCN(c3nc4c(C)ccc(Cl)c4s3)CC2)c1 -21.9%, CCCCCn1c(CNC(=O)c2ccc(F)cc2)nc2ccccc21 -15.9%, CN(C(=O)Cn1ncc2c1-c1ccccc1OC2)c1ccc(Br)cc1 -6.08%, N=C(N)N1CCc2ccccc2C1 -4.82% [at 5.77 µM], Cc1ccc(S(=O)(=O)NCCc2nnc3ccc(SCC(=O)Nc4ccc(OC(F)(F)F)cc4)nn23)cc1 -12.9%, O=C1COc2cc(S(=O)(=O)CCC(=O)N3CCN(c4ccccc4)CC3)c(Cl)cc2N1 -12%, CCOc1ccc(NC(=O)Cn2c(=O)c(CNc3ccccc3)cc3cc4c(cc32)OCCO4)cc1 12.1%, CCCc1ccc(-c2ccc(C(=O)Oc3ccc(Br)cc3)cc2)nc1 -6.04%, COc1ccc(Cl)cc1C(=O)Nc1c2c(nn1-c1ccc(Cl)cc1)CS(=O)(=O)C2 -27.2%, Cc1cc(C)cc(-n2ccnc(NCc3ccc(F)cc3)c2=O)c1 -9.86%, COc1ccccc1OCC(=O)Nc1c(C(=O)c2ccc(C)cc2)oc2ccccc12 -3.68%, CCCCCn1c(-c2cccc(C)c2)nc2ccccc21 -15.6%, O=C(Nc1ccc2c(c1)OCO2)c1cc(-c2ccc(Cl)cc2)on1 -12.2%, CN(C)C1(CNC(=O)COc2ccc(C(C)(C)C)cc2)CCCCC1 -9.68%, CCOC(=O)c1c(C)[nH]c(C)c1S(=O)(=O)N1CCC(C(=O)NCc2ccc(N(C)C)cc2)CC1 -4.95%, COc1ccc(OC)c(CCNC(=O)C(C)n2c(C)c3cnn(-c4ccccc4)c(=O)c3c2C)c1 (stereo unspecified) -6.86%, COc1ccccc1CNS(=O)(=O)c1ccc(N2CCCCS2(=O)=O)cc1 -18.4%, CCOc1ccc(NC(=O)Cn2cc(C(=O)c3ccccc3)c(=O)c3cc4c(cc32)OCO4)cc1 -4.45%, Cc1ccc(Cn2c(=O)n(-c3ccc(C)c(C)c3)c(=O)c3c(C)c(C)sc32)cc1 -16.9%, CCOc1ccc(CNC(=O)C2=Cc3cc(Br)ccc3OC2)cc1OC -8.79%, COc1ccccc1NC(=O)c1oc2ccccc2c1NC(=O)COc1ccccc1OC -10.8%, COc1ccc(Cl)cc1NC(=O)CSc1nc(=O)[nH]c2c1CCCC2 -8.48%, CCOc1ccc(OCC)c(NC(=O)c2csc3c2CCCC3)c1 -12.8%, CN(C)CCOc1ccccc1Cc1ccccc1 -15.2%, COc1cc(Cl)c(NC(=O)CN(C)S(=O)(=O)c2ccc3c(c2)CCCC(=O)N3)c(OC)c1 -5.13%, COc1ccc(NC(=O)c2cc(C)nc3c2c(C)nn3-c2cccc(Cl)c2C)c(OC)c1 -0.428%, CC(=O)N1c2c(cc(Br)cc2S(=O)(=O)NCc2ccccc2Cl)CC1C (stereo unspecified) -15.8%, Cc1ccc2oc(-c3ccc(NC(=O)c4cccc(F)c4)c(C)c3)nc2c1 14.6%, COc1cc(NC(=O)N2CCC(CN3CCc4ccccc4C3)CC2)cc(OC)c1 -0.612%, Cc1ccc(-c2cn3c(n2)sc2cc(C(=O)NCc4cccs4)ccc23)c(C)c1 -8.21%, Cc1ccc(N(Cc2cc3ccccc3[nH]c2=O)C(=O)c2cccc(Cl)c2)cc1 -10.1%

Source: PubChem BioAssay AID1159614 (National Center for Advancing Translational Sciences (NCATS), 2016)
